# PubChem BioAssay AID504332 (National Center for Advancing Translational Sciences (NCATS), 2011)
# Among all 350,000 compounds or so, about 31,000 (8.9%) were called active. The shares of active, inactive and inconclusive entries below differ from those in the screen. Calls come from the whole dose curve; as a rule, active = well fitted inhibition curve with a large enough effect; inconclusive = small, poorly fitted or top-dose-only effect; inactive = no such curve, though single readings can be large or run the other way. Where the call is inconclusive, the potency comes from a doubtful curve fit.
# Target: Histone-lysine N-methyltransferase EHMT2 (Homo sapiens) (UniProt Q96KQ7)
# Assay: qHTS Assay for Inhibitors of Histone Lysine Methyltransferase G9a; note: nearly all actives have a fitted effect of over 75% in size
# Conditions: G9a H3K9 monomethylation, AlphaScreen, 2 h; activity, negative = inhibition: at 59 µM (top of the series) unless noted
# Summary of the method: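 Quantitative HTS format: methyltransferase activity on a biotin-tagged H3K9 peptide is measured by AlphaScreen, using a rabbit anti-monomethyl-H3K9 antibody with streptavidin donor and anti-IgG acceptor beads. Final levels are 20 nM enzyme, 500 nM peptide, 20 uM SAM; 2 h RT.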
# % is set by controls: 0 for no effect and ±100 for the full control effect; potency is the fitted concentration of half-maximal effect; tags give direction and shape of the fitted curve.
# Chain of UniProt Q96KQ7 (Q96KQ7 whole entry, looked up): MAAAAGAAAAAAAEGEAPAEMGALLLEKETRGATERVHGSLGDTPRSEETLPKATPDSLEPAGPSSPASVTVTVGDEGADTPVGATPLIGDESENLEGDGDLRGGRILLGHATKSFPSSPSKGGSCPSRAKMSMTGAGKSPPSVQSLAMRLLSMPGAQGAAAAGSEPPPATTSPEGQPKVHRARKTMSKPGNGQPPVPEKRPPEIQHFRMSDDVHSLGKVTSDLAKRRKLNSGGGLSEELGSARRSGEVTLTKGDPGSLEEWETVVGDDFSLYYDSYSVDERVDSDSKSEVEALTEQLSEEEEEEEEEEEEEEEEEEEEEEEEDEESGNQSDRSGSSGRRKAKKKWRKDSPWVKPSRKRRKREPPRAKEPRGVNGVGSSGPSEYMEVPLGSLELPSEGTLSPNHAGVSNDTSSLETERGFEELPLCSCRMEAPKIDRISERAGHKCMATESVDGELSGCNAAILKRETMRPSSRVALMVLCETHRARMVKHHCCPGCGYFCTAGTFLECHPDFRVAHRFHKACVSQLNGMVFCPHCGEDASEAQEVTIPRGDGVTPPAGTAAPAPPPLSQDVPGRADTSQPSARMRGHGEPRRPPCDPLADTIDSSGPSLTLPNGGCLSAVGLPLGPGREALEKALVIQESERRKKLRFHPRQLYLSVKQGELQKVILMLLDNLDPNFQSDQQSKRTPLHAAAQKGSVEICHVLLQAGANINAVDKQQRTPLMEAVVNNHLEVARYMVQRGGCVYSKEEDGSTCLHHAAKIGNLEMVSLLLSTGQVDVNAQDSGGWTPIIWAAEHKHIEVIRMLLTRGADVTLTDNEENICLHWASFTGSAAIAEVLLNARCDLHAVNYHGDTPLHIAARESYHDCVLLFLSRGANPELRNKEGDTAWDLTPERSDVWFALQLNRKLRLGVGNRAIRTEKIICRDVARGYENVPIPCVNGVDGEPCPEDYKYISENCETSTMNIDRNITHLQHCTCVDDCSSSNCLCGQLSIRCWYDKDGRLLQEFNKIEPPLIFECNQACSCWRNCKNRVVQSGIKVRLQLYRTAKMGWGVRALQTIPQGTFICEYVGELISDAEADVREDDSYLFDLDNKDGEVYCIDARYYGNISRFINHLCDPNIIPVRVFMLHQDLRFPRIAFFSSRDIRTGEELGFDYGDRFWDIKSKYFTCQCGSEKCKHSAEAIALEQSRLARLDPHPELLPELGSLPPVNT
Compound,Potency,"activity, negative = inhibition"
O=C(c1ccccc1)c1cccn1CC(=O)N1CCN(c2ccc(F)cc2)CC1,"inconclusive: 17.8 µM [inhibitor, partial curve, poor fit]",
O=C1c2ccccc2C(=O)C1c1ccc(F)cc1,"inconclusive: 0.282 µM [inhibitor, full curve, poor fit]",
C=CCn1c(Cn2nnc3ccccc32)nnc1SCC(=O)N/N=C/c1cc(Br)cc(OC)c1O,"inconclusive: 3.55 µM [inhibitor, single point]",
CS(=O)(=O)N(CC(=O)NCc1ccccc1)C1CCCCC1,"inconclusive: 39.8 µM [inhibitor, single point]",
Cc1cccc(-n2[nH]c3c4c(ccc3c2=O)C(=O)c2ccccc2C4=O)c1,active: 14.1 µM,
Cc1cccc(NC(=O)CSc2nnc(Cn3nnc(-c4ccccc4)n3)n2-c2ccccc2)c1,"inconclusive: 79.4 µM [inhibitor, partial curve, poor fit]",
Cc1ccccc1NC(=O)CN1CCN(C)CC1,active: 10 µM,
Cc1nn(-c2ccccc2)c(C)c1/C=C/C(=O)OCC(=O)Nc1ncc(Cl)cc1Cl,"inconclusive: 28.2 µM [inhibitor, single point]",
CCN(CC)C(=O)Cn1cc(C(=O)C(=O)N2CCCc3ccccc32)c2ccccc21,"inconclusive: 89.1 µM [inhibitor, partial curve, poor fit]",
Cc1ccc(C)c(S(=O)(=O)N2C(=S)NC(=O)C2C(C)C)c1 (stereo not drawn),,inconclusive: -85.1% [inhibitor]
O=C(CSc1nc2c(c(=O)n1-c1ccc(Cl)cc1)SCC2)NCc1ccco1,"inconclusive: 17.8 µM [inhibitor, single point]",
CN(C(=O)Cn1c(Cl)nc2c1c(=O)n(C)c(=O)n2C)C1CCS(=O)(=O)C1 (stereo not drawn),active: 56.2 µM,
Cc1c(Cl)cccc1NC(=O)C1CCCN(C(=O)c2cnn(-c3ccccc3)c2-n2cccc2)C1 (stereo not drawn),,inactive: -2.57%
CCOC(=O)c1c(NC(=O)CN2C(=O)NC3(CCCCC3C)C2=O)sc(C)c1CC (stereo not drawn),"inconclusive: 50.1 µM [inhibitor, partial curve]",
CN(C)c1ccc(-c2cccc(C3CC=CC4C3C(=O)N(Cc3ccccc3)C4c3ccc(C(F)(F)F)cc3)c2)cc1 (stereo not drawn),,inconclusive: -71.8% [inhibitor] [at 12.7 µM]
CC(=O)Nc1ccc(OCCOc2ccc([N+](=O)[O-])cc2)cc1,"inconclusive: 0.562 µM [inhibitor, partial curve, poor fit]",
CCO/C=C/C(O)(CNC(=O)COc1ccccc1F)C(F)(F)F (stereo not drawn),,inactive: -13.6%
Cc1cc(-c2nc3ncccc3o2)ccc1NC(=S)NC(=O)C(C)C,,inactive: 2.75% [at 102 µM]
